Laboratory results reported in article PMC8664570.
No constants are given. Whether binding was seen depends on the method and setting. Some binding calls cover weakened binding; strength is not graded here. Tags and fused reporters may be left off the sequences shown.

Amino acid sequences for entries named in this document (tags omitted).
UniProt A0A1C3NSL9: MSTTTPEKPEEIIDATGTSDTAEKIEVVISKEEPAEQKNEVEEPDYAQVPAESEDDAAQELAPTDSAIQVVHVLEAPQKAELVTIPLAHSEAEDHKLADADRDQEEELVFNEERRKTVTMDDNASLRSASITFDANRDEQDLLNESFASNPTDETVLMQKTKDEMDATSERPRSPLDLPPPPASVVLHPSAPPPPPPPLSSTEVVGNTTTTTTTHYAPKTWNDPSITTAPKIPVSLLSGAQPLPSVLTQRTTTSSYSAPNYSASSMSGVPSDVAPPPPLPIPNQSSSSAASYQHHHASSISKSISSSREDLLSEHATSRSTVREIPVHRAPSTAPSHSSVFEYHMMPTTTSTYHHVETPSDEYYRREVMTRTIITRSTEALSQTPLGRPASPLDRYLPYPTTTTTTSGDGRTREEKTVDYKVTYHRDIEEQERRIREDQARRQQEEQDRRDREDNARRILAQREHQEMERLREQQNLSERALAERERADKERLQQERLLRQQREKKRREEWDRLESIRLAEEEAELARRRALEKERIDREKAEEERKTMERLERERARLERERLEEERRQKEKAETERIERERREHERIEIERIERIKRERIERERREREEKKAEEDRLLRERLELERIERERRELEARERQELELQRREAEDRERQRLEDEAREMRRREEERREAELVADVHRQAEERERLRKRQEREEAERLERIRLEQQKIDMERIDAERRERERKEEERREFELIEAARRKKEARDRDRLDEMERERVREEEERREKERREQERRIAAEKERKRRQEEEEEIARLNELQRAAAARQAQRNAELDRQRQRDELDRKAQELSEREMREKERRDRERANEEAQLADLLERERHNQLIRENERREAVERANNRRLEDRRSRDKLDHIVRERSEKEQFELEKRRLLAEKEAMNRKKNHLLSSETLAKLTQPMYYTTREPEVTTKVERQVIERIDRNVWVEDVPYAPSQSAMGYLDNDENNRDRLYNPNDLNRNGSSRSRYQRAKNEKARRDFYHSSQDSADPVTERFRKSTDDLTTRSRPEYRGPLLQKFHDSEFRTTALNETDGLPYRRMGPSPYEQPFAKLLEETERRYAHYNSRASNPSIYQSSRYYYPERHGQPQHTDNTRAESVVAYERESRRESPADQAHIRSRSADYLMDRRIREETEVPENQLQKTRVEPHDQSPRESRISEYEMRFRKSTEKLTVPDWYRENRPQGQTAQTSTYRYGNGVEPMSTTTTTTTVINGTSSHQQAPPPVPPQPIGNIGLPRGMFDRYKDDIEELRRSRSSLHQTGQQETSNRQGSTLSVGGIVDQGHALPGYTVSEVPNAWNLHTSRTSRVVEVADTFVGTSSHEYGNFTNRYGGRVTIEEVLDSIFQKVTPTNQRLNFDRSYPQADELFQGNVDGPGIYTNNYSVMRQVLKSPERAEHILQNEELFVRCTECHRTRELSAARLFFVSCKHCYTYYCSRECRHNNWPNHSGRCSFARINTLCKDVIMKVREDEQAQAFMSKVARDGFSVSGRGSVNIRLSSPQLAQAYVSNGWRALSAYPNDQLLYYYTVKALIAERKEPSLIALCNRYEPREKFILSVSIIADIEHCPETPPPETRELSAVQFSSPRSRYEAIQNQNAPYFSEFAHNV

How the values were obtained:
Test in all cases: light-induced coclustering (CeLINC), fluorescence microscopy; in live C. elegans larvae (L2-L4), intestine and/or epidermis; GFP-tagged bait trapped by CRY2(olig)::VHH(GFP) in CRY2(olig)/CIBN-MP clusters, clusters preactivated by white light during mounting; coclustering of the prey of another colour scored (images, ComDet); cannot tell direct from indirect interactions
[1] = molecular target: T1, DLG-1::GFP (expressed from the elt-2 promoter) (C. elegans) (UniProt G5ECY0)
T1 sequence: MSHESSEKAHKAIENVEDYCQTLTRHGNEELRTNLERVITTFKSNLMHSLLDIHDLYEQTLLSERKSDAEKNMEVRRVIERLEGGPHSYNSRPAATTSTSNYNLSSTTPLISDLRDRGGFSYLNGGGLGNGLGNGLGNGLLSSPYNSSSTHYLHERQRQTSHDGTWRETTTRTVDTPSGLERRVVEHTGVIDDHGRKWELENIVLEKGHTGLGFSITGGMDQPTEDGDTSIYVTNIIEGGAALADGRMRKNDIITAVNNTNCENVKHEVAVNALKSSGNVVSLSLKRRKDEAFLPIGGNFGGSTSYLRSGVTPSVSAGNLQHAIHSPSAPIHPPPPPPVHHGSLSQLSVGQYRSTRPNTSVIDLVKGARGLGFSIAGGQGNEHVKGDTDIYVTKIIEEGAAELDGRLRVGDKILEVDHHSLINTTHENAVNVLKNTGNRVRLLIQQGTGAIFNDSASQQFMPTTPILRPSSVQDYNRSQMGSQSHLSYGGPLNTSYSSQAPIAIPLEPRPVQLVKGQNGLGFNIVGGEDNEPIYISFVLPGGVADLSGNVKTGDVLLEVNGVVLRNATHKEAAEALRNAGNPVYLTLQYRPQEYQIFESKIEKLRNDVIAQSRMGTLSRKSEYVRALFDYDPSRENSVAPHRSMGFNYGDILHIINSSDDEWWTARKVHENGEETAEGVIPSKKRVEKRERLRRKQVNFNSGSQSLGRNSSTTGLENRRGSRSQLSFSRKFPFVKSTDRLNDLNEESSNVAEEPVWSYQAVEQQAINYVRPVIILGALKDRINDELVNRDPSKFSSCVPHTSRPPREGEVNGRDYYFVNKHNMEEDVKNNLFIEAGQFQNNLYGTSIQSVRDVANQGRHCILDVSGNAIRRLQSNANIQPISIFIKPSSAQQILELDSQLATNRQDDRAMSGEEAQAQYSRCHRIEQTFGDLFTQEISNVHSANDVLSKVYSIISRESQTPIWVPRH

[2] = molecular target: T2, DLG-1::GFP (endogenous tag) (C. elegans) (UniProt G5ECY0)
T2 sequence: T1 sequence

GFP::PKC-3 (C. elegans) = molecular target: T3, GFP::PKC-3 (C. elegans) (UniProt Q19266)
T3 sequence: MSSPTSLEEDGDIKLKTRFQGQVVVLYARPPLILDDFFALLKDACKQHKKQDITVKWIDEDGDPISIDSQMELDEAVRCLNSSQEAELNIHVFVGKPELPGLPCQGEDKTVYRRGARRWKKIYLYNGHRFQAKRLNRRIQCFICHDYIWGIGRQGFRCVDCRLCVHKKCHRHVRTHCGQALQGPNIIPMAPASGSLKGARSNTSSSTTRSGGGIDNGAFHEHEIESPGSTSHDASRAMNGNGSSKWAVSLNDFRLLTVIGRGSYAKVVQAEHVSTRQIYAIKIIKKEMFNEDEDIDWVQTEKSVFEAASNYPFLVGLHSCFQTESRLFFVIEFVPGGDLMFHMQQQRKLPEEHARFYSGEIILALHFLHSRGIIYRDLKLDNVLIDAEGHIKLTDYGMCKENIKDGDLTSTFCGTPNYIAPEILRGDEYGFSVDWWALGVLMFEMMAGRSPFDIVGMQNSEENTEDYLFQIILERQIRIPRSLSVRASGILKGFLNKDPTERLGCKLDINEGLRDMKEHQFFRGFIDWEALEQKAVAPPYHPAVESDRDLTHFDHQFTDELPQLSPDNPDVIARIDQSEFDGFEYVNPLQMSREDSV

[3] = molecular target: T4, LET-413 (endogenously tagged) (C. elegans) (UniProt O61967)
T4 sequence: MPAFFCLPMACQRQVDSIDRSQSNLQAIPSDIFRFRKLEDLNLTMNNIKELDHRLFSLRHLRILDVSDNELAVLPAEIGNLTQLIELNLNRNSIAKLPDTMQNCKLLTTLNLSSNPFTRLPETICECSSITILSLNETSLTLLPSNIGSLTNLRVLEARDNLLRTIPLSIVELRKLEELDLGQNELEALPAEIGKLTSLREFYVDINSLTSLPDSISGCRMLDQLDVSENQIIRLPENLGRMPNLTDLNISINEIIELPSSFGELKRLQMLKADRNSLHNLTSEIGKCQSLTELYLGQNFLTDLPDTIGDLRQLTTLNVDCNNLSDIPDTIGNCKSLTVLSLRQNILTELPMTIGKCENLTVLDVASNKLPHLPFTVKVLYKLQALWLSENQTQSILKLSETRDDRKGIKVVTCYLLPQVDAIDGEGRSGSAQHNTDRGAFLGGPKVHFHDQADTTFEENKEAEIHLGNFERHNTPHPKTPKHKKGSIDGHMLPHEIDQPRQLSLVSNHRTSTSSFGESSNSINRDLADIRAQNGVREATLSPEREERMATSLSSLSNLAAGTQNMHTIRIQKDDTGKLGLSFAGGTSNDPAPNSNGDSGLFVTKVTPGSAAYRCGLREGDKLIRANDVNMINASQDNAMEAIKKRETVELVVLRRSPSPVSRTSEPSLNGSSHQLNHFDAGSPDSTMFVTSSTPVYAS

[4] = molecular target: T5, DLG-1 (endogenously tagged, as tested with LET-413 and LGL-1) (C. elegans) (UniProt G5ECY0)
T5 sequence: T1 sequence

Which binding [1] does the source give for “AJM-1::mCherry (expressed from the elt-2 promoter) (from UniProt A0A1C3NSL9 1-1644)” here?
The binding was “binds”.

“AJM-1::mCherry (multicopy insertion) (from UniProt A0A1C3NSL9 1-1644)” was tested. Which binding [2] did it give?
Its binding is “binds”.

B1: mKate2::PAR-6 (protein, UniProt Q9NAN2 1-309)
chain: MSYNGSYHQNHHSTLQVKSKFDSEWRRFSIPMHSASGVSYDGFRSLVEKLHHLESVQFTLCYNSTGGDLLPITNDDNLRKSFESARPLLRLLIQRRGESWEEKYGYGTDSDKRWKGISSLMAQKPPKRSYSISNPEDFRQVSAIIDVDIVPEAHRRVRLCKHGQERPLGFYIRDGTSVRVTERGVVKVSGIFISRLVDGGLAESTGLLGVNDEVLEVNGIEVLGKTLDQVTDMMVANAHNLIITVKPANQRNTLSRGPSQQGTPNASEMSAATAAATGGIQRPMKMNGSSDGSYHPKQHDANDSDSGED
With B1 as the molecule, how does the binding (GFP::PKC-3 (C. elegans)) read?
Its binding is “binds”.

B2: mKate2::PAR-6(ΔPB1) (protein, UniProt Q9NAN2)
chain: MSYNGSYHQNHHSTSIPMHSASGVSYDGFRSLVEKLHHLESVQFTLCYNSTGGDLLPITNDDNLRKSFESARPLLRLLIQRRGESWEEKYGYGTDSDKRWKGISSLMAQKPPKRSYSISNPEDFRQVSAIIDVDIVPEAHRRVRLCKHGQERPLGFYIRDGTSVRVTERGVVKVSGIFISRLVDGGLAESTGLLGVNDEVLEVNGIEVLGKTLDQVTDMMVANAHNLIITVKPANQRNTLSRGPSQQGTPNASEMSAATAAATGGIQRPMKMNGSSDGSYHPKQHDANDSDSGED
For B2, which binding (GFP::PKC-3 (C. elegans)) is on record?
Its binding is “no binding”.

B3: DLG-1 (endogenously tagged, as tested with LET-413 and LGL-1) (protein, UniProt G5ECY0 1-967)
chain: T1 sequence
For B3, which binding [3] is on record?
Its binding is “no binding”.

B4: LET-413 (endogenously tagged) (protein, UniProt O61967 1-699)
chain: T4 sequence
B4 was tested. Which binding [4] did it give?
Its binding is “no binding”.
